The BET-seq Pho4 binding data (Le et al. 2018)
This is one part of the list. The energies were worked out here from pooled read counts, against the library average; single values are noisy.

biological target: T1, Pho4 (S. cerevisiae) (UniProt P07270); assay: relative binding free energy (BET-seq); higher = weaker binding; conditions: reference: library average
T1 sequence: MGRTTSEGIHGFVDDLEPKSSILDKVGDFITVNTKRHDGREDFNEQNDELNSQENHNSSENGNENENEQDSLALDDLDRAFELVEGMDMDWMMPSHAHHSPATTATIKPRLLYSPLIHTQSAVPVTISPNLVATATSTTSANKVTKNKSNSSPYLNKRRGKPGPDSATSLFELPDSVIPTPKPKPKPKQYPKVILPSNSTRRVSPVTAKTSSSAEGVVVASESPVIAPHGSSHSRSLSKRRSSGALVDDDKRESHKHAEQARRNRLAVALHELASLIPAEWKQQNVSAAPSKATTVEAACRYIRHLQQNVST

| Sequence | relative binding free energy |
| --- | --- |
| ATGTCCACGTGGAGAG | 0.11 kcal/mol |
| AATTGCACGTGATGTA | -0.07 kcal/mol |
| GCTGTCACGTGGTAAG | 0.12 kcal/mol |
| AGGTTCACGTGGAAAG | 0.32 kcal/mol |
| GCTCGCACGTGGGTAG | -0.11 kcal/mol |
| ATGCGCACGTGGGTCA | -0.24 kcal/mol |
| GATGGCACGTGGTGAA | 0.04 kcal/mol |
| TGGGACACGTGGAGGA | 0.03 kcal/mol |
| AGATACACGTGCGTGG | -0.05 kcal/mol |
| GTGAACACGTGTAGTT | 0.05 kcal/mol |
| TTTAGCACGTGTCGAA | -0.03 kcal/mol |
| TCGGTCACGTGAAGAG | 0.15 kcal/mol |
| CATTACACGTGTGTTT | 0.18 kcal/mol |
| ATGTTCACGTGAAGTC | 0.55 kcal/mol |
| TAGGACACGTGTGTTA | 0 kcal/mol |
| CTTTTCACGTGTCTAG | 0.24 kcal/mol |
| TAGGCCACGTGTATGG | -0.06 kcal/mol |
| ATTTGCACGTGGTAGC | -0.04 kcal/mol |
| TTATACACGTGTACGG | -0.04 kcal/mol |
| GGTTTCACGTGCAGAA | 0.36 kcal/mol |
| TGTTACACGTGTCATG | 0.05 kcal/mol |
| AGGTCCACGTGACGGG | 0 kcal/mol |
| TTACTCACGTGTTTGA | 0.14 kcal/mol |

| Sequence | relative binding free energy |
| --- | --- |
| ATAGTCACGTGGACAG | 0.16 kcal/mol |
| GTTATCACGTGAAGGT | 0.36 kcal/mol |
| GAGAACACGTGTATTG | 0.2 kcal/mol |
| AATGGCACGTGTACGG | -0.02 kcal/mol |
| ATTTTCACGTGGGGCA | 0.05 kcal/mol |
| CTTCGCACGTGGGTTT | -0.07 kcal/mol |
| GATGGCACGTGATTGG | 0.07 kcal/mol |
| CGATGCACGTGTCGGT | 0.13 kcal/mol |
| GTTTTCACGTGGCGGA | 0.32 kcal/mol |
| TTGGGCACGTGTCGTT | -0.11 kcal/mol |
| CATCGCACGTGAGTGG | 0.17 kcal/mol |
| AGTTACACGTGGGTTG | -0.1 kcal/mol |
| ATCAACACGTGGTGGT | 0.03 kcal/mol |
| TCTGGCACGTGTGGAG | 0.03 kcal/mol |
| AGTAACACGTGTGGGG | 0.07 kcal/mol |
| AAGAGCACGTGTTCGG | -0.13 kcal/mol |
| GCGGTCACGTGTAATG | 0.31 kcal/mol |
| GGTGGCACGTGAATGG | 0.24 kcal/mol |
| TTGGGCACGTGCGGGA | -0.09 kcal/mol |
| TAGGGCACGTGCCGTA | -0.12 kcal/mol |
| TGGTCCACGTGTGGTT | 0.09 kcal/mol |
| TCGCGCACGTGGCGGG | -0.27 kcal/mol |
| TTTGTCACGTGTTCCT | 0.09 kcal/mol |

| Sequence | relative binding free energy |
| --- | --- |
| TGAGTCACGTGTAAAG | 0.23 kcal/mol |
| GTTGTCACGTGTCATG | 0.26 kcal/mol |
| AGATGCACGTGCTGGT | -0.19 kcal/mol |
| ATTAACACGTGTGGCG | -0.01 kcal/mol |
| GGCGCCACGTGCTGGG | -0.11 kcal/mol |
| CGTGTCACGTGTGTTT | 0.05 kcal/mol |
| TAGCGCACGTGGGGTA | -0.34 kcal/mol |
| ATAGGCACGTGCCGTT | -0.15 kcal/mol |
| AATAGCACGTGTAGTA | -0.16 kcal/mol |
| AGTTGCACGTGACGGT | 0.17 kcal/mol |
| TGGTCCACGTGGTTAA | -0.18 kcal/mol |
| GTGGACACGTGCTAGG | -0.13 kcal/mol |
| ATTGACACGTGGGCTG | -0.17 kcal/mol |
| AGGTGCACGTGTGGCG | -0.01 kcal/mol |
| GTACGCACGTGTGTGC | -0.11 kcal/mol |
| GTCGCCACGTGTTTGG | 0.08 kcal/mol |
| TTAGGCACGTGTGGAA | -0.16 kcal/mol |
| TGTTGCACGTGGCAGC | -0.12 kcal/mol |
| GGTTCCACGTGTGGAT | 0.31 kcal/mol |
| GAGGCCACGTGTATGG | 0.01 kcal/mol |
| AAAGTCACGTGCGTTG | 0.02 kcal/mol |
| TACTACACGTGTGTGT | 0.16 kcal/mol |
| ATTATCACGTGATGCT | 0.14 kcal/mol |

| Sequence | relative binding free energy |
| --- | --- |
| ATAGTCACGTGAGTGG | 0.36 kcal/mol |
| GAGGGCACGTGCTGTA | -0.23 kcal/mol |
| GTGAGCACGTGTCGTT | 0.09 kcal/mol |
| TAGTGCACGTGTTATG | -0.11 kcal/mol |
| AGTGTCACGTGGTCTC | -0.02 kcal/mol |
| AACTGCACGTGTTGAG | 0.06 kcal/mol |
| ACGTACACGTGGTCGG | 0.11 kcal/mol |
| ACGGGCACGTGTAATG | 0.02 kcal/mol |
| AGTCACACGTGTGTGG | 0.11 kcal/mol |
| GTTTACACGTGTCGTA | 0.22 kcal/mol |
| AATTTCACGTGTCGAG | 0.36 kcal/mol |
| TTAGACACGTGAGCGT | 0.05 kcal/mol |
| TGGATCACGTGATAGT | 0.46 kcal/mol |
| TTAGTCACGTGAGGTT | 0.23 kcal/mol |
| TAGCACACGTGGTTGC | 0.29 kcal/mol |
| GGGGTCACGTGGATTA | 0.11 kcal/mol |
| GGCAGCACGTGATAGG | 0.13 kcal/mol |
| TAGAACACGTGTGTTG | -0.1 kcal/mol |
| AATGTCACGTGTTAAT | 0.12 kcal/mol |
| CAATTCACGTGTGGGA | 0.25 kcal/mol |
| ATATTCACGTGTTAAA | 0.19 kcal/mol |
| AGCATCACGTGTGTGT | 0.11 kcal/mol |
| TGGGGCACGTGGCGTG | -0.1 kcal/mol |

| Sequence | relative binding free energy |
| --- | --- |
| CAGCGCACGTGGGGCG | -0.25 kcal/mol |
| AGCGGCACGTGTGGTT | -0.05 kcal/mol |
| AGAATCACGTGGGTGG | 0 kcal/mol |
| TTATGCACGTGGGTAC | -0.25 kcal/mol |
| TTTAACACGTGGGAAG | -0.16 kcal/mol |
| TGGGGCACGTGACGGC | 0.13 kcal/mol |
| ATTTTCACGTGATTCA | 0.19 kcal/mol |
| CGAGTCACGTGATGGA | 0.28 kcal/mol |
| TTGTGCACGTGGTGTT | -0.1 kcal/mol |
| TTTTACACGTGATTGT | 0.32 kcal/mol |
| GGAGTCACGTGGCTGA | 0.02 kcal/mol |
| GAGAACACGTGGGTAG | -0.12 kcal/mol |
| TAATTCACGTGAGCGG | 0.31 kcal/mol |
| TTTGTCACGTGTAGAT | 0.21 kcal/mol |
| CGGTTCACGTGTATAT | 0.35 kcal/mol |
| GTCGTCACGTGGATGA | 0.12 kcal/mol |
| GTGGTCACGTGGTAGA | 0.16 kcal/mol |
| TGGATCACGTGTTGAC | 0.08 kcal/mol |
| TGTAACACGTGGGGTA | -0.15 kcal/mol |
| AGGGGCACGTGTTGCT | -0.11 kcal/mol |
| AATGTCACGTGAGAGG | 0.39 kcal/mol |
| TGCTTCACGTGTTCGT | 0.24 kcal/mol |
| GGGGGCACGTGACCTG | -0.02 kcal/mol |
